Reference: the supplement of paper PMC11417369
± gives the standard deviation of the averaged measurements. Some of the results follow.

Each sequence was assayed on PfAP2-G AP2 domain (GST-tagged) (assay: gcPBM binding intensity (ln(normalized median fluorescence intensity)); higher = stronger DNA binding).
Method in brief: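 An Agilent 4 × 180k array of primer-extended double-stranded 36-bp intergenic genomic probes, with negative controls, was incubated for 1 h with GST-tagged P. falciparum DNA-binding domains expressed in E. coli. Alexa488 anti-GST antibody detected bound protein, scanned at 488 nm. Binding intensity is the highest Masliner-normalised natural-log median intensity across replicate spots of either probe orientation.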

Row | Sequence | gcPBM binding intensity (ln)
1 | ACATATATATATATATATATATATATATTTATTTAT [CACACA_negctrl_site734] | 10.2 ± 0.39
2 | TACACCATGATACATACACACAGACATATACACATT [CACACA_site6601] | 10.3 ± 0.23
3 | AATTAAATGATTTATACATGCATATAAATATAAATA [TGCATGCA_site579] | 9.69 ± 0.12
4 | TCTGTAAATATGTATACACACATATATGATCAATAT [CACACA_site3234] | 10.11 ± 0.085
5 | AGTAGAAAAGGAACATGTACGAATTAAAAAAATAAT [XGTACX_site2347] | 11 ± 0.33
6 | AATAATATGTTATCTCTTACACATATAAAAAATAAA [XGTACX_negctrl_site370] | 9.825 ± 0.078
7 | TAAAAGAAAGCACATACACACACAAAAAAAAAAAAG [CACACA_site8159] | 10.2 ± 0.28
8 | AAAAAACATTTGATCTGTACGCATAGACAATTATAT [XGTACX_site960] | 11.5 ± 1
9 | ACAGGATTGGTTCAAACACACATATTATAGGACTAT [CACACA_site6455] | 10.26 ± 0.049
10 | AAAAAAAAATCATATTGTACGTAAAAAAAAAAAAAA [XGTACX_site476] | 11.4 ± 1
11 | AATATGTTTTGTTAGGTTGGTGTTGGTAGAATGTTT [CACACA_negctrl_site1563] | 9.945 ± 0.035
12 | TTATACTGTACAAAAAGAATAGCAGTATAACAAAAA [CACACA_negctrl_site755] | 10.7 ± 0.51
13 | CAATATATTTGATTTACACACTTACAATGTATTTAA [CACACA_site5632] | 10.2 ± 0.15
14 | ATAATCCTTAGACACACACACACACGAATAAATAAA [CACACA_site6364] | 10.3 ± 0.27
15 | CGAAAAAATAAAAAAAAAATAAAATAAAATAAATAA [TGCATGCA_negctrl_site278] | 9.495 ± 0.007
16 | ATATATATATATATGTGTACATATTTTTTTGAAGTG [XGTACX_site248] | 11.4 ± 0.93
17 | TAATATAAATGAAAGGTGCTTTTGCTTTCTTTTTTT | 9.44 ± 0.3
18 | TTTTCTATATAACAACGTACATTTATTATATTATAA [XGTACX_site6148] | 11 ± 0.6
19 | AATATAATATACATATGTACATATATATATATATAT [XGTACX_site8218] | 11 ± 0.56
20 | TATAACACACAATGATGTACATTACATTATTTTTTA [XGTACX_site2076] | 11 ± 0.52
21 | ATACATATAATAATATGTACATATAATTATATATAT [XGTACX_site913] | 11.2 ± 0.67
22 | AAAAAAAAAAAAAATACACACACACCGATATATATA [CACACA_site8142] | 10.03 ± 0.049

Row | Sequence | gcPBM binding intensity (ln)
23 | TCTGGATTGGATTACAAGAAAATAAAATATAAAATA [CACACA_negctrl_site122] | 9.92 ± 0.2
24 | TATACAAATATATATGCACACACATATATGTATATG [CACACA_site9007] | 9.97 ± 0.042
25 | TAATTAAAGTTATCTACACACCTTTATAGATATATA [CACACA_site7778] | 9.73 ± 0.17
26 | TATAAAACAAATATATGTACATATCATAGTATAATA [XGTACX_site2965] | 11.1 ± 0.62
27 | TAATATATTTTTAACATGCACTGTATTTTAATATAT | 9.89 ± 0.18
28 | TTTGGTTATTTGACCTGTACACATTTAATTATTTTT [XGTACX_site5170] | 11.4 ± 0.84
29 | CAAAGGAAATGGTGTACACAATTTTTCCTTTTTCGT [CACACA_site4800] | 11.8 ± 1.2
30 | AATAATATATTATATGCATGTGTATAATTTGATATA [TGCATGCA_site1058] | 10.1 ± 0.23
31 | AAATACTTATTCGTGGTGCAACAATTTTAAAAATTA | 10.5 ± 0.33
32 | ATTAAAATAATACGTACACACATGTATAATACATAT [CACACA_site1005] | 11.5 ± 0.91
33 | ATTATGAATTTAAGACGTACAAAAAATTTTTATTCA [XGTACX_site5682] | 11.4 ± 0.88
34 | ACAAGTATTCCTTTTGCACACCTTTCTGCACCTTAT [CACACA_site3873] | 10.4 ± 0.19
35 | TAACAACGATACAATTGTACAAATTATATATATATA [XGTACX_site4687] | 10.6 ± 0.31
36 | CAAAAAAAGTTATACACACACACACGGATATAAATA [CACACA_site6619] | 10.2 ± 0.11
37 | TATTACATAATATATGTACACACGCAAATACTTATA [CACACA_site7994] | 11.4 ± 0.85
38 | AGCAAGACGGGGTGCACACAAACTAATATGCCGAAT [CACACA_site159] | 10.8 ± 0.57
39 | AAAATACAGAAACACACACACACACCCATATATATA [CACACA_site3559] | 9.99 ± 0.16
40 | TTTTATAAAACATGTAGTACATGAAAAAAAAAATTT [XGTACX_site1626] | 11.6 ± 1
41 | GAAAAGTATAAAAAACGTACAAGTTTTATTTTCACA [XGTACX_site4604] | 11.4 ± 1.1
42 | CCCCTATAAATAGGGTGTACTAATAAATATTTTTAA [XGTACX_site1244] | 11.6 ± 0.91
43 | ACGGGCGACACATAAGTGCGCAAAAAAAAAAAAATA [GTGCAC_site9688] | 10.4 ± 0.46
44 | TAAAATAAAAAGTTTACACACATATATAACTTTAAT [CACACA_site6456] | 9.81 ± 0.13
